Assay results from the supplement of paper PMC7238544.
Where a name gives a salt, the structure may show the parent alone. ± gives the standard deviation of the averaged measurements. The list shows a part of the results.

The compounds below were run on hAMSC donor 1 (assay: Hoechst total cell count ratio vs vehicle control; hAMSC are human adipose-derived mesenchymal stem cells given an EGFP-luciferase plasmid by lipofection; higher = more cells (less toxicity)). Conditions: priming compound concentration 100 µM.
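Note: compound added 30 min before Lipofectamine 3000 lipoplex delivery, triplicate-well means expressed against DMSO vehicle control wells of the same 96-well plate.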

SMILES | Hoechst total cell count ratio
CCOC(=O)c1ccc(OC(=O)CCCCCNC(=N)N)cc1 [Gabexate mesilate] | 1.79 ± 0.2
CNCCC=C1c2ccccc2CCc2ccccc21 [Nortriptyline hydrochloride] | 0.181 ± 0.057
O=C(O[C@@H]1Cc2c(O)cc(O)cc2O[C@@H]1c1cc(O)c(O)c(O)c1)c1cc(O)c(O)c(O)c1 [Epigallocatechin gallate] | 1.95 ± 0.086
CC(C)Oc1ccc2c(=O)c(-c3ccccc3)coc2c1 [Ipriflavone] | 1.2 ± 0.03
CC(=O)Oc1ccccc1C(=O)Nc1ncc([N+](=O)[O-])s1 [Nitazoxanide] | 1.23 ± 0.044
CCN1CCN(C(=O)N[C@@H](C(=O)N[C@@H]2C(=O)N3[C@@H]2SC(C)(C)[C@@H]3C(=O)O)c2ccccc2)C(=O)C1=O [Piperacillin sodium] | 1.18 ± 0.16
CC=CC(=O)N(CC)c1ccccc1C [Crotamiton] | 0.803 ± 0.17
Nc1nc(Cl)nc2c1ncn2[C@H]1C[C@H](O)[C@@H](CO)O1 [Cladribine] | 0.628 ± 0.056
CCOC(=O)[C@H](CCc1ccccc1)N[C@@H](C)C(=O)N1Cc2ccccc2C[C@H]1C(=O)O [Quinapril hydrochloride] | 1.38 ± 0.21
C[N+]1(C)CCC(OC(=O)C(O)(c2ccccc2)C2CCCC2)C1 (stereo unspecified) [Glycopyrronium bromide] | 0.847 ± 0.07
CSc1ccc2c(c1)N(CCC1CCCCN1C)c1ccccc1S2 (stereo unspecified) [Thioridazine hydrochloride] | 0.0697 ± 0.052
CC(C)NCC(O)COc1cccc2[nH]ccc12 (stereo unspecified) [Pindolol] | 1.07 ± 0.21
CC(C)n1c(/C=C/C(O)CC(O)CC(=O)O)c(-c2ccc(F)cc2)c2ccccc21 (stereo unspecified) [Fluvastatin] | 0.757 ± 0.11
CCOC(=O)c1ncn2c1CN(C)C(=O)c1cc(F)ccc1-2 [Flumazenil] | 1.17 ± 0.12
CC(C)(C)NC(=O)[C@@H]1C[C@@H]2CCCC[C@@H]2CN1C[C@@H](O)[C@H](Cc1ccccc1)NC(=O)[C@H](CC(N)=O)NC(=O)c1ccc2ccccc2n1 [Saquinavir mesylate] | 0.0637 ± 0.039
CC(C)(C)NC(=O)[C@@H]1CN(Cc2cccnc2)CCN1C[C@@H](O)C[C@@H](Cc1ccccc1)C(=O)N[C@H]1c2ccccc2C[C@H]1O [Indinavir sulfate] | 1.28 ± 0.19
COCCCOc1ccnc(C[S+]([O-])c2nc3ccccc3[nH]2)c1C (stereo unspecified) [Rabeprazole] | 1.22 ± 0.73
CN(C)CCOC(c1ccccc1)c1ccccc1 [Diphenhydramine hydrochloride] | 1.09 ± 0.042
Cc1nc2n(c(=O)c1CCN1CCC(c3noc4cc(F)ccc34)CC1)CCCC2 [Risperidone] | 1.72 ± 0.12
CC[C@H](C)C(=O)O[C@H]1C[C@H](O)C=C2C=C[C@H](C)[C@H](CC[C@@H](O)C[C@@H](O)CC(=O)O)[C@H]21 [Pravastatin sodium] | 1.1 ± 0.08
CCc1nn(CCCN2CCN(c3cccc(Cl)c3)CC2)c(=O)n1CCOc1ccccc1 [Nefazodone hydrochloride] | 1.23 ± 0.24
CN(C)CC[C@@H](c1ccc(Cl)cc1)c1ccccn1 [Dexchlorpheniramine maleate] | 1.24 ± 0.036
CC(C)(C)C(O)/C=C/c1ccc2c(c1)OCO2 (stereo unspecified) [Stiripentol] | 1.05 ± 0.13
CC[C@@]1(O)C(=O)OCc2c1cc1n(c2=O)Cc2cc3c(CN(C)C)c(O)ccc3nc2-1 [Topotecan hydrochloride] | 0.588 ± 0.13
NC(=O)c1ncn([C@@H]2O[C@H](CO)[C@@H](O)[C@H]2O)n1 [Ribavirin] | 1.08 ± 0.06
CN1CCC(=C2c3ccccc3CC(=O)c3sccc32)CC1 [Ketotifen fumarate] | 1.2 ± 0.15
